# Assay results: PubChem BioAssay AID1508624 (National Center for Advancing Translational Sciences (NCATS), 2021)
# Screen size: about 48,000 compounds; about 120 (0.25%) were called active. Inconclusive results (about 4%) are left out. Calls follow the shape of the dose curve; as a rule, active = well fitted activation curve with a large enough effect; inconclusive = small, poorly fitted or top-dose-only effect, or another doubt; inactive = no such curve, though single readings can be large or run the other way. The list shows a part of the results.
# Assay: Primary qHTS for Identification of Small Molecule Activators of Huntingtin-Antisense Promoter Activity; also: nearly all actives have a fitted effect of over 55% in size
# Conditions: HEK293 HTT-AS promoter firefly luciferase reporter, 24 h; series mostly up to 57.5 µM; activity change, positive = activation: at the top concentration
# How it was run: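 Luminescence was read after Dual-Glo reagent and a 10 min room-temperature incubation. Values were normalized to vehicle (0% activity) and zero RLU (-100% activity). Reporter HEK293 cells had been exposed to compounds (up to 57.5 uM final) for 24 h.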
row,Structure (SMILES),"activity change, positive = activation"
1,O=C(CSc1nc2ccccc2n1Cc1c(F)cccc1Cl)N1CCN(c2ccc(F)cc2)CC1,inactive: -7.74%
2,CCOc1cc(CNC(=O)c2ccc3nc(CCc4ccccc4)oc3c2)ccc1OC,inactive: 4%
3,COc1ccc(NC(=O)CN2C(=O)C3(SCC(=O)N3c3cccc(OC)c3)c3ccccc32)cc1 (stereo not given),inactive: -7.77%
4,Cc1ccc(S(=O)(=O)NCCc2csc3nc(-c4ccccc4C)nn23)cc1,inactive: -23.4%
5,Cc1ccc(CNC(=O)C(C)n2ccc3cc(S(=O)(=O)N4CCCC4)ccc32)cc1 (stereo not given),inactive: -19.8%
6,O=C(Nc1nnc(SCc2cc(=O)n3cc(Cl)ccc3n2)s1)c1cccc(F)c1,inactive: 3.39%
7,O=C(c1ccc2c(Cl)c3c(nc2c1)CCCC3)N1CCN(c2ccccc2F)CC1,inactive: -6.4%
8,COc1ccc(N2CC(NC(=O)c3c(F)cccc3Cl)CC2=O)cc1OC (stereo not given),inactive: -9.89%
9,CCC(C(=O)N1CCN(c2ccccc2)CC1)n1nc(C)c2sc3ccccc3c2c1=O (stereo not given),inactive: -10.7%
10,Cc1ccccc1NC(=O)c1cnc2sc(N3CCCC3)nn2c1=O,inactive: -6.16%
11,CCOc1ccc(N2CC(c3nc4ccccc4n3CCOc3ccc(CC)cc3)CC2=O)cc1 (stereo not given),inactive: -15.9%
12,CC1=C(C(=O)Nc2cccc(C(F)(F)F)c2)C(c2ccccc2)n2ncnc2N1 (stereo not given),inactive: -14.9%
13,CCc1cccc(C)c1NC(=O)CCn1nc(C)c2c(C)n(-c3ccccc3)nc2c1=O,inactive: -17.1%
14,CCOc1ccccc1O[C@H](c1ccccc1)[C@H]1CNCCO1,inactive: -2.12%
15,COc1ccc(NC(=O)Cc2noc3ccc(C)cc23)cc1Cl,inactive: -27.6%
16,COc1cccc(N2CC(NC(=O)C3CC3)CC2=O)c1 (stereo not given),inactive: 3.06%
17,COc1ccc(NC(=O)Cn2c(=O)n(-c3ccc(C)c(C)c3)c(=O)c3c(C)c(C)sc32)cc1,inactive: 0%
18,Cc1ccc(CCNC(=O)c2ccc(NC(=O)N3CCSc4ccccc43)cc2)cc1,inactive: -0.855%
19,Cc1ccc(C)c(N2CCN(c3nc4c(S(=O)(=O)c5ccccc5)nnn4c4ccc(Cl)cc34)CC2)c1,inactive: 0%
20,CCOc1ccc2c(c1)c(=O)c(C(=O)c1ccc(CC)cc1)cn2CC(=O)Nc1ccccc1C,inactive: -11.6%
21,COc1ccc(N2CCN(c3cc(C)nc4nncn34)CC2)cc1,inactive: -31.9%
22,CCOC(=O)c1c(S(=O)(=O)N2CCC(C(=O)Nc3cccc(C)n3)CC2)c(C)n(C)c1C,inactive: 18.7%
23,CCCN(C(=O)c1cc2c(=O)oc3ccccc3c2s1)c1ccccc1C,inactive: -40.8%

row,Structure (SMILES),"activity change, positive = activation"
1,CCC(C)NC(=O)Cn1c(=O)ccc2cc(S(=O)(=O)N3CCCC3)ccc21 (stereo not given),inactive: -12.1%
2,Cc1ccc(NC(=O)Cn2nnc(C(=O)NCCc3ccccc3)c2N)cc1Cl,inactive: -0.371%
3,CCc1ccc2c(c1)c(=O)c(S(=O)(=O)c1ccccc1)cn2CC(=O)Nc1ccc(OC)cc1,inactive: -12.9%
4,COCC(=O)N1c2nc(-c3ccco3)nn2C2(CCCCC2)[C@@H]2CCCC[C@@H]21,inactive: -21.9%
5,Cc1cccc(C#Cc2ccccc2)n1,inactive: -4.75%
6,Cc1cccc(N2CCN(Cc3nnc(-c4ccc5c(c4)OCO5)o3)CC2)c1C,inactive: -0.418%
7,CCc1nn2c(=O)cc(COc3ccc(/C=C(\C#N)C(=O)Nc4ccc(C)cc4)cc3)nc2s1,inactive: -9.5%
8,O=C(Cn1c(=O)c2cccn2c2ccc(F)cc21)N1CCN(c2ccccc2)CC1,inactive: -3.76%
9,CCc1ccc(NC(=O)Cn2c(=O)n(CC3CCCO3)c(=O)c3cc(OC)c(OC)cc32)cc1 (stereo not given),inactive: -19.6%
10,Cc1ccc(-c2cc(C(F)(F)F)c(C#N)c(SCC(=O)O)n2)cc1,"inactive: -4.89% [at 11.5 µM, percent change from vehicle, -100% = no light]"
11,COc1ccc(NC(=O)Nc2ccccc2OCc2cc(=O)n3ccccc3n2)c(OC)c1,inactive: -0.752%
12,Cc1ccccc1CNC(=O)C(=O)NCC(c1cccs1)S(=O)(=O)c1ccc(Cl)cc1 (stereo not given),inactive: -38%
13,O=C(CN1C(=O)C2CCCCN2c2ccc(C(=O)N3CCCC3)cc21)NCc1cccc(F)c1 (stereo not given),inactive: -15.2%
14,Cc1cc(C)cc(NC(=O)Cn2c3ncccc3c(=O)n2-c2ccc(C)c(C)c2)c1,inactive: -16.7%
15,Cc1ccc(CSc2ncc(Cl)c(C(=O)Nc3sc4c(c3C(N)=O)CCCC4)n2)cc1,inactive: -13%
16,O=C(Cn1cnc2nc3c(cc2c1=O)CCCC3)N1CCN(c2ccccc2)CC1,inactive: 1.04%
17,Cc1c(Cl)cccc1NC(=O)CSc1nc(=O)n(Cc2cccnc2)c2c1CCC2,inactive: -6.31%
18,Cc1c(Cl)cccc1-n1ncc(C(=O)Nc2ccc(F)cc2F)c1C1CCN(C(=O)OC(C)(C)C)CC1,inactive: -24.7%
19,O=C1CC(c2nc(-c3ccccc3)no2)CN1c1ccc2c(c1)OCCO2 (stereo not given),inactive: -5.24%
20,COC(=O)C1CCN(C(c2ccccc2)c2sc3nc(-c4ccco4)nn3c2O)CC1 (stereo not given),inactive: 2.37%
21,Cc1ccc(Cn2cc(S(=O)(=O)c3ccc(C)cc3)c(=O)c3cc(F)c(N4CCCC4)cc32)cc1,inactive: -4.59%
22,CCOc1cccc(NC(=O)c2ccc(F)c(S(=O)(=O)N(CC)c3cccc(C)c3)c2)c1,inactive: -29.9%
23,Cc1ccc(CNC(=O)C2CCN(C(=O)c3cnn(-c4ccccc4)c3-n3cccc3)CC2)cc1,inactive: -39.2%

row,Structure (SMILES),"activity change, positive = activation"
1,C[C@H](O)C(=O)Nc1c(I)c(C(=O)NC(CO)CO)c(I)c(C(=O)NC(CO)CO)c1I,inactive: -3.14%
2,COCCN1Cc2cccc(C(=O)Nc3ccc(Cl)cc3Cl)c2C1=O,inactive: -21.6%
3,CC(=O)N1CCc2c(sc3c2c(=O)n(CCc2ccccc2)c(=O)n3Cc2cccc(C)c2)C1,inactive: -35.6%
4,O=c1c(=O)n(Cc2c(F)cccc2Cl)ccn1Cc1ccccc1,inactive: -4.92%
5,CC(C)NC(=O)Cn1nc(N2CCN(c3ccccc3)CC2)ccc1=O,inactive: -9.42%
6,COc1ccc2oc(-c3ccc(C)c(NC(=O)CSc4ccc(Cl)cc4)c3)nc2c1,inactive: 3.34%
7,CCOc1cc(C2C(C(=O)OC)=C(C)NC3=C2C(=O)c2ccccc23)c(Br)cc1O (stereo not given),inactive: -18.3%
8,CC(=O)N1c2ccc(S(=O)(=O)N3CCN(c4cccc(Cl)c4)CC3)cc2CC1C (stereo not given),inactive: -19.9%
9,Cc1ccc(-c2c3c(=O)n(C)c(=O)n(C)c3cn2-c2cc(C)ccc2O)cc1,inactive: -12.6%
10,COc1ccc(N2CCN(C3C(=O)c4ccccc4N3C(C)=O)CC2)cc1 (stereo not given),inactive: -14.3%
11,COc1cccc(NC(=O)Cn2c(=O)n(CC(=O)NCCc3ccccc3)c(=O)c3sccc32)c1,inactive: -15.9%
12,CN(C1CCc2c(c3ccccc3n2CC(=O)O)C1)S(=O)(=O)c1ccc(F)cc1 (stereo not given),inactive: -2.92%
13,Cc1ccc(NC(=O)c2oc3ccc(S(=O)(=O)N4CCC5(CC4)OCCO5)cc3c2C)c(C)c1,inactive: -40%
14,COCCn1c(SCC(=O)Nc2ccc(C(F)(F)F)cc2)nc2c([nH]c3ccccc32)c1=O,inactive: -17.7%
15,O=c1cc[nH]c(=S)[nH]1,inactive: 10.8%
16,O=C(NCc1ccc2c(c1)CCN2C(=O)c1ccccc1)c1ccco1,inactive: -8.53%
17,O=C(Nc1ccc(S(=O)(=O)N(Cc2ccccc2)c2ccccc2)cc1)c1ccc([N+](=O)[O-])cc1,inactive: -11%
18,Cc1ccc(NC(=O)C(=O)NCCc2csc3nc(-c4ccccc4C)nn23)cc1Cl,inactive: -3.79%
19,O=C(NCc1ccccc1Cl)c1ccc(NC(=O)N2CCSc3ncccc32)cc1,inactive: -14.2%
20,COc1ccc(C)cc1NC(=O)Cn1c(=O)oc2cc(S(=O)(=O)NCc3ccccc3)ccc21,inactive: -34.6%
21,COc1ccc2c(c1)CC(C(=O)NCCN1CCN(c3cccc(C)c3C)CC1)CO2 (stereo not given),inactive: -20.4%
22,CC(C)CCNC(=O)Nc1cc(C(=O)NCc2cccc(F)c2)ccc1N1CCCC1,inactive: -5.19%
23,COc1ccc2c(c1)c1c(c(=O)n(Cc3ccccc3)c(=O)n1CC(=O)Nc1ccc(C)cc1C)n2C,inactive: -4.48%

row,Structure (SMILES),"activity change, positive = activation"
1,O=C(Nc1nnc(S(=O)(=O)N2CCCCCC2)s1)c1ccccc1Br,inactive: -12.1%
2,c1ccc(CCNc2nc(-c3ccccc3)cs2)cc1,inactive: 17.3%
3,Cc1ccc(NC(=O)C2CCCN(S(=O)(=O)c3c(C)n[nH]c3C)C2)cc1C (stereo not given),inactive: -13.9%
4,CSc1cccc(NC(=O)C2CCN(S(=O)(=O)c3ccc4[nH]c5c(c4c3)CCCCC5)CC2)c1,inactive: -25.2%
5,CCOC(=O)c1ccc(CN(Cc2ccc(C)cc2)S(=O)(=O)c2ccc(NC(C)=O)cc2)cc1,inactive: -17.6%
6,COCCCNC(=O)CN1C(=O)CSc2ccc(S(=O)(=O)N3CCOCC3)cc21,inactive: -15.4%
7,CCCS(=O)(=O)N1CC(=O)N(c2ccc(Cl)cc2)C(C)(C(=O)NC2CCCC2)C1 (stereo not given),inactive: -1.38%
8,CCn1cc2nc(SCc3ccc(F)cc3)n(Cc3ccc(Cl)cc3)c(=O)c2n1,inactive: 8.91%
9,CC(=O)Nc1ccc(Nc2nnc(-c3ccc(C)c(S(N)(=O)=O)c3)c3ccccc23)cc1,inactive: -5.05%
10,Cc1nc(SCc2ccc(Cl)cc2)c(C#N)c(C)c1Cl,inactive: -8.24%
11,CCOc1cc2[nH]c(=O)n(CCCC(=O)N3CCN(c4cccc(Cl)c4)CC3)c(=O)c2cc1OCC,inactive: -33.1%
12,CC(C)CC(=O)N[C@H](C(=O)N[C@H](C(=O)N[C@@H](CC(C)C)[C@@H](O)CC(=O)N[C@@H](C)C(=O)N[C@@H](CC(C)C)[C@@H](O)CC(=O)O)C(C)C)C(C)C,inactive: -5.25%
13,COc1ccc(OC)c(NC(=O)N2CCC(CN3CCCCC3)CC2)c1,inactive: -6.63%
14,COc1ccc(OC)c(CNc2sc3c(c2C(=O)Nc2cc(OC)ccc2OC)CCCC3)c1,inactive: -25.3%
15,CC(C)Cn1cc(C(=O)N2CCN(c3cccc(Cl)c3)CC2)c2c3ccccc3n(C)c2c1=O,inactive: -35.2%
16,CC(=O)N1CCCc2cc(S(=O)(=O)N3CCCC(C(=O)Nc4cccc(Cl)c4C)C3)ccc21 (stereo not given),inactive: -31.4%
17,CCOC(=O)c1cnc2ccc(OCC)cc2c1Nc1cc(Cl)c(OC)cc1OC,"inactive: -4.36% [at 11.5 µM, percent change from vehicle, -100% = no light]"
18,Cc1ccc(C)c(OC(=O)CSc2nnc(-c3ccc4c(c3)OCO4)o2)c1,inactive: -17.2%
19,CCCCc1ccc(NC(=O)c2ccc3c(c2)CCN3S(=O)(=O)c2ccccc2)cc1,inactive: 2.35%
20,CCOc1cc(C(=O)Nc2ccc(S(=O)(=O)Nc3cc(OC)nc(OC)n3)cc2)cc(OCC)c1OCC,inactive: -5.8%
21,COC(=O)c1ccc(Cn2c(SCC(=O)N(C)c3ccccc3)nc3ccccc32)cc1,inactive: -15.2%
